# According to the supplement of paper PMC11125491:
# ± gives the standard deviation of the averaged measurements. Growth of baker's yeast expressing single-residue variants of Pneumocystis jirovecii dihydrofolate reductase in 8.8 or 44 µM methotrexate (about 75% and 90% inhibition of the wild type). Selection coefficient per generation; 0 = like wild type, above 0 = less sensitive, below 0 = more sensitive or loss of function. No active / inactive call per row; the paper calls resistant above 0.220 (8.8 µM) or 0.243 (44 µM) together with a significance test. At 44 µM about 15% of codons end with one read or none, so the lowest values are floors (replicate rank correlation 0.74; 0.94 at 8.8 µM).
# B1: UniProt A0EPZ9; numbered along this chain (parent)
# chain: MDWQKSLTLIVALTLSRGIGLKNDLPWKLKSDMMFFSRVTSGLLVTRSTGQMNVVLMGRKTWESLPAHSRPLKNRINVVISRQEVLDLGGGAYHARSLDDALALLSQIYDSTSKIQLNRVFVIGGGELCKAAMEHSRLNRIIATVIHNEVDCDVFFPIDFRSSQSCLPWRKQDHSVLEAWVGSKVPQGKINENGFIYEFEMWIRDI
# Variants of: B1
# Assay: selection coefficient against synonymous wild-type codons (log2 per generation); higher = faster growth than wild type
# Conditions: with Saccharomyces cerevisiae carrying the variant on a plasmid
# Protocol: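 Pooled growth of yeast carrying single-residue variants of P. jirovecii dihydrofolate reductase (own DFR1 gene intact), two passages at 30 °C, three cultures, sequenced before and after. Codons with under 15 starting reads are left out; codons of one change are averaged.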
Variant,selection coefficient against synonymous wild-type codons (log2) (methotrexate 8.8 µM),selection coefficient against synonymous wild-type codons (log2) (methotrexate 44 µM)
W62R,-0.387 ± 0.11,-0.197 ± 0.14
S69N,-0.0749 ± 0.031,-0.115 ± 0.15
L98M,-0.231 ± 0.016,-0.202 ± 0.2
Y197T,-0.0803 ± 0.04,-0.134 ± 0.2
Y197I,-0.237 ± 0.041,-0.282 ± 0.13
Q172W,-0.3 ± 0.1,-0.183 ± 0.17
Q172R,-0.248 ± 0.077,-0.274 ± 0.12
Q172I,-0.101 ± 0.051,-0.219 ± 0.14
P66E,-0.0799 ± 0.02,-0.203 ± 0.13
P66L,-0.321 ± 0.13,-0.155 ± 0.12
F160S,0.459 ± 0.042,0.481 ± 0.029
Q116N,-0.014 ± 0.097,0.0319 ± 0.13
Q116T,-0.0697 ± 0.055,-0.0486 ± 0.12
T112Q,0.0074 ± 0.045,0.0473 ± 0.065
I196E,0.191 ± 0.037,0.18 ± 0.048
V181W,-0.143 ± 0.047,-0.193 ± 0.15
V181M,0.00842 ± 0.035,-0.272 ± 0.085
R137H,-0.00178 ± 0.023,0.109 ± 0.032
R137I,-0.356 ± 0.11,-0.234 ± 0.12
E198W,-0.469 ± 0.038,-0.414 ± 0.095
E198V,-0.424 ± 0.059,-0.386 ± 0.099
E198K,-0.11 ± 0.062,-0.404 ± 0.097
Q187N,-0.074 ± 0.058,-0.0257 ± 0.058
Q187D,-0.0313 ± 0.0079,-0.174 ± 0.18

Variant,selection coefficient against synonymous wild-type codons (log2) (methotrexate 8.8 µM),selection coefficient against synonymous wild-type codons (log2) (methotrexate 44 µM)
L7S,-0.257 ± 0.11,-0.179 ± 0.16
E192Q,0.0842 ± 0.052,0.0409 ± 0.13
L25C,-0.156 ± 0.049,-0.13 ± 0.089
S48L,-0.159 ± 0.044,-0.19 ± 0.088
W169E,-0.731 ± 0.17,-0.375 ± 0.12
L167R,-0.0278 ± 0.027,-0.0856 ± 0.15
T144D,0.0624 ± 0.041,0.305 ± 0.04
T144V,0.246 ± 0.028,0.466 ± 0.033
L105S,-0.452 ± 0.18,-0.214 ± 0.08
M52W,-0.255 ± 0.083,-0.0757 ± 0.049
R17Y,-0.132 ± 0.18,0.0499 ± 0.38
W180I,0.00369 ± 0.0057,-0.0176 ± 0.1
A12F,-0.401 ± 0.046,-0.153 ± 0.02
D2W,-0.0812 ± 0.11,-0.119 ± 0.097
E84G,-0.293 ± 0.044,-0.206 ± 0.07
A179S,0.00351 ± 0.046,-0.00683 ± 0.047
E127Y,-0.258 ± 0.018,-0.184 ± 0.083
V120N,-0.695 ± 0.045,-0.192 ± 0.031
V120A,-0.368 ± 0.11,-0.185 ± 0.11
V120R,-0.697 ± 0.1,-0.254 ± 0.05
A143P,-0.428 ± 0.084,-0.263 ± 0.095
A143F,-0.133 ± 0.097,0.148 ± 0.74
F35C,0.488 ± 0.023,0.564 ± 0.036
G124Y,-0.408 ± 0.046,0.0714 ± 0.073

Variant,selection coefficient against synonymous wild-type codons (log2) (methotrexate 8.8 µM),selection coefficient against synonymous wild-type codons (log2) (methotrexate 44 µM)
G124M,-0.63 ± 0.14,-0.295 ± 0.021
I142F,0.175 ± 0.024,0.359 ± 0.063
I142H,-0.0555 ± 0.023,0.0062 ± 0.11
Q107N,-0.0109 ± 0.093,0.0635 ± 0.21
Q107V,-0.238 ± 0.06,-0.127 ± 0.13
A103G,-0.139 ± 0.033,-0.135 ± 0.094
A103K,0.0305 ± 0.0081,0.0566 ± 0.012
K189V,-0.109 ± 0.018,-0.119 ± 0.097
V78W,-0.731 ± 0.028,-0.227 ± 0.057
V78E,-0.784 ± 0.027,-0.237 ± 0.079
L128M,-0.384 ± 0.061,-0.169 ± 0.092
K60F,-0.457 ± 0.11,-0.209 ± 0.077
V79S,-0.645 ± 0.1,-0.142 ± 0.11
V79L,-0.572 ± 0.11,-0.113 ± 0.042
V79P,-0.672 ± 0.03,-0.17 ± 0.047
M34F,-0.21 ± 0.16,-0.0969 ± 0.11
A95T,-0.426 ± 0.12,-0.209 ± 0.17
D173W,-0.391 ± 0.084,-0.359 ± 0.15
D173I,-0.233 ± 0.041,-0.242 ± 0.12
G125K,-0.807 ± 0.048,-0.389 ± 0.031
L88Y,-0.51 ± 0.06,-0.347 ± 0.065
L88G,-0.479 ± 0.12,-0.202 ± 0.051
G90F,-0.249 ± 0.03,-0.253 ± 0.081
L65G,-0.228 ± 0.045,-0.129 ± 0.072

Variant,selection coefficient against synonymous wild-type codons (log2) (methotrexate 8.8 µM),selection coefficient against synonymous wild-type codons (log2) (methotrexate 44 µM)
L65A,-0.339 ± 0.14,-0.2 ± 0.1
L65T,-0.295 ± 0.13,-0.214 ± 0.047
L65W,-0.166 ± 0.031,-0.0921 ± 0.16
G42H,-0.0498 ± 0.045,-0.0914 ± 0.12
G42V,-0.212 ± 0.043,-0.0887 ± 0.13
H135R,-0.288 ± 0.066,-0.272 ± 0.11
H135K,-0.302 ± 0.038,-0.303 ± 0.036
H135D,0.0676 ± 0.033,0.215 ± 0.08
K130R,-0.035 ± 0.034,0.024 ± 0.073
K130W,-0.337 ± 0.088,-0.321 ± 0.19
K130M,-0.174 ± 0.022,-0.0879 ± 0.1
S163Q,0.0352 ± 0.048,0.00385 ± 0.03
K5Q,-0.0819 ± 0.083,-0.0462 ± 0.062
W27M,0.0561 ± 0.0064,0.0248 ± 0.075
W27K,-0.405 ± 0.17,-0.181 ± 0.062
W27T,0.0777 ± 0.033,0.122 ± 0.065
W3Y,-0.0177 ± 0.1,0.041 ± 0.11
W3N,0.247 ± 0.035,0.222 ± 0.063
W3A,0.357 ± 0.04,0.324 ± 0.097
S113R,-0.21 ± 0.1,-0.192 ± 0.11
S113Q,-0.0737 ± 0.065,0.0639 ± 0.027
S113C,-0.174 ± 0.015,-0.129 ± 0.015
T8C,-0.118 ± 0.029,-0.275 ± 0.15
V145W,-0.23 ± 0.013,-0.222 ± 0.12

Variant,selection coefficient against synonymous wild-type codons (log2) (methotrexate 8.8 µM),selection coefficient against synonymous wild-type codons (log2) (methotrexate 44 µM)
V145R,0.294 ± 0.041,0.382 ± 0.041
S175E,0.0644 ± 0.059,0.0235 ± 0.028
R82H,-0.224 ± 0.059,-0.157 ± 0.033
R82K,-0.0705 ± 0.091,-0.18 ± 0.074
R82W,-0.508 ± 0.071,-0.256 ± 0.091
S165V,0.00619 ± 0.043,-0.0701 ± 0.11
S165R,-0.0122 ± 0.069,-0.102 ± 0.086
N139L,-0.438 ± 0.088,-0.247 ± 0.15
N139H,-0.154 ± 0.2,-0.0271 ± 0.0047
S97R,-0.595 ± 0.11,-0.182 ± 0.064
L9K,-0.52 ± 0.052,-0.23 ± 0.095
L9I,0.245 ± 0.028,0.181 ± 0.077
S162A,-0.0203 ± 0.045,-0.0748 ± 0.17
L21R,0.24 ± 0.17,0.247 ± 0.19
R38A,0.00287 ± 0.063,0.0026 ± 0.12
R38T,0.0389 ± 0.086,0.139 ± 0.075
I190W,-0.335 ± 0.043,-0.341 ± 0.17
Y109L,0.112 ± 0.033,0.156 ± 0.04
Y109Q,0.169 ± 0.017,0.187 ± 0.04
W202T,-0.679 ± 0.12,-0.24 ± 0.085
